# In the antibiotic and cytotoxicity screens of Wong et al. (2023):
# This is one part of the list.
# System: S. aureus RN4220
# Assay: growth inhibition call (relative growth <= 0.2)
# Settings: 50 µM
row,Compound,growth inhibition call
1,CC(C)NC(=O)N(C)C[C@H]1Oc2ccc(NS(=O)(=O)c3ccccc3)cc2C(=O)N([C@@H](C)CO)C[C@H]1C,inactive
2,C[C@H]1CN([C@@H](C)CO)C(=O)c2cc(NC(=O)CCCCCC(=O)Nc3ccccc3N)ccc2O[C@@H]1CN(C)CC1CCCCC1,inactive
3,C[C@H](CO)N1C[C@H](C)[C@@H](CN(C)CC2CCCCC2)Oc2ccc(NC(=O)Cc3cn(C)c4ccccc34)cc2C1=O,inactive
4,C[C@@H]1CN([C@@H](C)CO)C(=O)c2cc(NC(=O)CCCCCC(=O)Nc3ccccc3N)ccc2O[C@@H]1CN(C)C(=O)Nc1ccc(C(F)(F)F)cc1,inactive
5,C[C@@H]1CN([C@H](C)CO)C(=O)c2cc(NS(=O)(=O)c3cn(C)cn3)ccc2O[C@H]1CN(C)C(=O)NC1CCCCC1,inactive
6,Cc1ccc(S(=O)(=O)N(C)C[C@@H]2Oc3c(NC(=O)c4cnccn4)cccc3C(=O)N([C@@H](C)CO)C[C@@H]2C)cc1,inactive
7,CC1(C)C[C@@](CCN)(Cc2ccccc2)CCO1,inactive
8,O=C(O)Cc1ccc(O)c(O)c1,inactive
9,COc1ccc(S(=O)(=O)Nc2ccc3c(c2)C(=O)N([C@H](C)CO)C[C@H](C)[C@H](CN(C)C(=O)CCC(F)(F)F)OCCCC[C@@H](C)O3)cc1,inactive
10,COC(=O)CC1C2(C)CC34OC5(C)OC6(C7C(=C(O)C(C)C)C(=O)OC(c8ccoc8)C7(C)C(OC(C)=O)C(OC(C)=O)C6(O5)C13C)C(OC(C)=O)C4(O)C2OC(=O)C(C)C (stereo not given),inactive
11,CC(C)C[C@@H]1NC(=O)[C@@H]2C[C@H](C(=O)NCCCCCNC(=O)CS)[C@H](c3ccc(O)cc3)N2C1=O,inactive
12,COc1ccc(NC(=O)N(C)C[C@H]2Oc3ccc(NS(=O)(=O)c4cn(C)cn4)cc3CC(=O)N([C@@H](C)CO)C[C@H]2C)cc1,inactive
13,C[C@@H]1CCCCO[C@H](CN(C)CC2CC2)[C@@H](C)CN([C@H](C)CO)C(=O)c2cc(NC(=O)Nc3ccc4c(c3)OCO4)ccc2O1,inactive
14,CCC(=O)O[C@H]1[C@H](O[C@@H]2[C@@H](C)[C@H](O[C@H]3C[C@@](C)(OC)[C@@H](O)[C@H](C)O3)[C@@H](C)C(=O)O[C@H](CC)[C@@](C)(O)[C@H](O)[C@@H](C)C(=O)[C@H](C)C[C@@]2(C)O)O[C@H](C)C[C@@H]1N(C)C,inactive
15,COc1ccc(S(=O)(=O)N(C)C[C@H]2Oc3cc(-c4ccccc4OC)ccc3S(=O)(=O)N([C@H](C)CO)C[C@@H]2C)cc1,inactive
16,CCCNC(=O)N1C[C@]2(CCN(CC2)S(=O)(=O)c2ccccc2)c2c(n(c3cc(ccc23)OC)C)[C@H]1CO,inactive
17,CCCCCCc1ccc(O)cc1O,active
18,C[C@@H]1CCCCO[C@H](CN(C)S(=O)(=O)c2ccc(Cl)cc2)[C@@H](C)CN([C@@H](C)CO)C(=O)c2cc(NC(=O)NC3CCCCC3)ccc2O1,inactive
19,C[C@H](CO)N1C[C@H](C)[C@H](CN(C)CC2CCCCC2)OCCCC[C@H](C)Oc2ccc(NC(=O)CCCN(C)C)cc2C1=O,inactive
20,COC(=O)c1[nH]c(C(=O)OC)c(O)c1O,inactive

row,Compound,growth inhibition call
1,C[C@H](CO)N1C[C@H](C)[C@@H](CN(C)Cc2ccc(C(=O)Nc3ccccc3N)cc2)OCc2cnnn2CCCC1=O,inactive
2,C[C@H](CO)N1C[C@H](C)[C@@H](CN(C)S(=O)(=O)c2ccc(Cl)cc2)Oc2ccc(NC(=O)CCN3CCOCC3)cc2CC1=O,inactive
3,COc1ccc([Si](C)(C)[C@@H]2[C@@H](CCOC(=O)NCCCCCC(=O)NO)O[C@@]3(C(=O)N(Cc4ccccc4)c4ccc(NC(=O)[C@@H](C)OC(=O)NCCCCCC(=O)NO)cc43)[C@H]2C)cc1,inactive
4,COc1ccc(NC(=O)Nc2ccc3c(c2)C(=O)N([C@@H](C)CO)C[C@@H](C)[C@@H](CN(C)S(=O)(=O)c2c(C)noc2C)OCCCC[C@@H](C)O3)cc1,inactive
5,Cc1ccc(S(=O)(=O)N(C)C[C@@H]2OCCCC[C@@H](C)Oc3ccc(NC(=O)Nc4ccc(F)cc4)cc3C(=O)N([C@@H](C)CO)C[C@@H]2C)cc1,inactive
6,O=C1N[C@@H](c2ccccc2)COCc2cn(nn2)CC[C@@H](Cc2ccc(C(F)(F)F)cc2)C(=O)N[C@@H](c2ccccc2)COCc2cn(nn2)CC[C@H]1Cc1ccc(C(F)(F)F)cc1,inactive
7,C[C@@H]1CCCCO[C@H](CN(C)S(=O)(=O)c2cccs2)[C@@H](C)CN([C@H](C)CO)C(=O)c2cc(NC(=O)Nc3ccc(F)cc3)ccc2O1,inactive
8,COC(=O)C1C(O)CCC2CN3CCc4c([nH]c5ccccc45)C3CC21 (stereo not given),inactive
9,COc1ccc(NC(=O)N(C)C[C@H]2OCCCC[C@@H](C)Oc3ccc(NS(=O)(=O)c4ccccc4)cc3C(=O)N([C@@H](C)CO)C[C@H]2C)cc1,inactive
10,COc1ccc(S(=O)(=O)N(C)C[C@H]2Oc3ccc(NC(=O)NC(C)C)cc3CC(=O)N([C@@H](C)CO)C[C@H]2C)cc1,inactive
11,C[C@@H]1CN([C@H](C)CO)C(=O)Cc2cc(NC(=O)Nc3cccc4ccccc34)ccc2O[C@H]1CN(C)Cc1ccc(Cl)c(Cl)c1,inactive
12,Cc1ccc(S(=O)(=O)n2cc([C@@H]3CC(=O)N(C(=O)OCc4ccccc4)[C@@H]3C(=O)Nc3cccc4cccnc34)c3ccccc32)cc1,inactive
13,C[C@H]1CCCCO[C@H](CN(C)C(=O)C2CCCCC2)[C@@H](C)CN([C@@H](C)CO)C(=O)c2cc(NC(=O)Nc3ccccc3)ccc2O1,inactive
14,Cc1ccc(S(=O)(=O)Nc2ccc3c(c2)C(=O)N([C@@H](C)CO)C[C@@H](C)[C@@H](CN(C)C(=O)Nc2ccccc2)OCCCC[C@H](C)O3)cc1,inactive
15,Cc1cccn2c(=O)c3cc(S(=O)(=O)c4ccc(Br)cc4)c(=N)n(CCCN4CCOCC4)c3nc12,inactive
16,O=c1nc(NCc2cccnc2)cn[nH]1,inactive
17,C[C@@H]1CN([C@H](C)CO)C(=O)c2cc(NS(C)(=O)=O)ccc2O[C@@H]1CN(C)C(=O)Nc1ccc(F)cc1,inactive
18,CCC1(O)C(=O)OCc2c1cc1n(c2=O)Cc2cc3cc(O)ccc3nc2-1 (stereo not given),inactive
19,CC(=O)OCCn1c(=O)[nH]c(=O)c2nsnc21,inactive
20,C[C@@H]1CCCCO[C@@H](CN(C)S(=O)(=O)c2ccccc2)[C@H](C)CN([C@H](C)CO)C(=O)c2cc(NS(C)(=O)=O)ccc2O1,inactive
